{"source": "the supplement of paper PMC10126150", "note": "Sequences with one replicate were seen in a single cluster, so their values are uncertain.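 Note: ATP exposure 15 min at 22 °C before imaging.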"}
{"test_system": "ATP", "experiment": "switch fluorescence ratio, 500 uM ATP over buffer (Cy3 cluster intensity, sum of 5 cycles each) (fold (ratio)); higher = stronger signal-on switching upon ATP binding; sequences stand for … in TCGTCGGCAGCGTCAGATGTGTATAAGAGACAGTTTTTTTTTTTTTTTTTTTTTTTTT…TC", "details": "aptamer strand: ATP DNA aptamer (quencher-CACCTGGGGGAGTATTGCGGAGGAAGG + anchor), 100 nM annealed; ATP concentration: 500 uM; one replicate", "in_short": "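Switching-strand clusters labelled with Cy3 on a modified Illumina MiSeq flow-cell were annealed to 100 nM quencher-labelled ATP aptamer, imaged in selection buffer, and re-imaged after 15 min with 500 uM ATP at 22 °C. This was done over five cycles with NaOH stripping and re-annealing in between. The fluorescence ratio is summed target-cycle over summed buffer-cycle Cy3 intensity per cluster, averaged per switch-domain sequence, excluding clusters outside 100-1000 RFU.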"}
{"sequence": "GGATAACTTT", "switch fluorescence ratio": 1.02}
{"sequence": "GGATAAGTGA", "switch fluorescence ratio": 0.975}
{"sequence": "GGATACGG", "switch fluorescence ratio": 0.947}
{"sequence": "GGATACGTCG", "switch fluorescence ratio": 0.995}
{"sequence": "GGATACGTTA", "switch fluorescence ratio": 1.05}
{"sequence": "GGATAGTCGA", "switch fluorescence ratio": 1.04}
{"sequence": "GGATATGTGA", "switch fluorescence ratio": 0.965}
{"sequence": "GGATATTCGA", "switch fluorescence ratio": 1.02}
{"sequence": "GGATATTTAC", "switch fluorescence ratio": 1.03}
{"sequence": "GGATCACAAG", "switch fluorescence ratio": 1}
{"sequence": "GGATCAGGCA", "switch fluorescence ratio": 0.969}
{"sequence": "GGATCATCCA", "switch fluorescence ratio": 0.995}
{"sequence": "GGATCGAGTA", "switch fluorescence ratio": 0.999}
{"sequence": "GGATCTGCGA", "switch fluorescence ratio": 1.03}
{"sequence": "GGATCTTGGA", "switch fluorescence ratio": 0.964}
{"sequence": "GGATCTTTTC", "switch fluorescence ratio": 1.06}
{"sequence": "GGATGAGGAA", "switch fluorescence ratio": 1.05}
{"sequence": "GGATGCAAAA", "switch fluorescence ratio": 1.04}
{"sequence": "GGATGCGGCG", "switch fluorescence ratio": 1.1}
{"sequence": "GGATGGATCT", "switch fluorescence ratio": 0.977}
{"sequence": "GGATGTAAGC", "switch fluorescence ratio": 1.03}
{"sequence": "GGATGTACCA", "switch fluorescence ratio": 0.993}
{"sequence": "GGATGTAGAC", "switch fluorescence ratio": 0.968}
{"sequence": "GGATGTGCAA", "switch fluorescence ratio": 1.06}
{"sequence": "GGATGTTGAC", "switch fluorescence ratio": 0.963}
{"sequence": "GGATTATTGT", "switch fluorescence ratio": 0.959}
{"sequence": "GGATTCAGTC", "switch fluorescence ratio": 1.02}
{"sequence": "GGATTCCAAC", "switch fluorescence ratio": 0.989}
{"sequence": "GGATTCTTGT", "switch fluorescence ratio": 1}
{"sequence": "GGATTGCATT", "switch fluorescence ratio": 1.01}
{"sequence": "GGATTGCCAG", "switch fluorescence ratio": 0.974}
{"sequence": "GGATTTCCCA", "switch fluorescence ratio": 1.02}
{"sequence": "GGATTTTTCC", "switch fluorescence ratio": 1.07}
{"sequence": "GGCAAAAAGG", "switch fluorescence ratio": 0.98}
{"sequence": "GGCAAAGTCT", "switch fluorescence ratio": 1.02}
{"sequence": "GGCAAAGTTT", "switch fluorescence ratio": 1.02}
{"sequence": "GGCAAATGAG", "switch fluorescence ratio": 1.06}
{"sequence": "GGCAACAGG", "switch fluorescence ratio": 1.08}
{"sequence": "GGCAAGAGAG", "switch fluorescence ratio": 1.04}
{"sequence": "GGCAATCAAA", "switch fluorescence ratio": 1.06}
{"sequence": "GGCACAATTA", "switch fluorescence ratio": 1}
{"sequence": "GGCACACGT", "switch fluorescence ratio": 1.01}
{"sequence": "GGCACACTGG", "switch fluorescence ratio": 1.01}
{"sequence": "GGCACGAAGG", "switch fluorescence ratio": 1.04}
{"sequence": "GGCACGGCGA", "switch fluorescence ratio": 0.989}
{"sequence": "GGCACGGTGC", "switch fluorescence ratio": 1.01}
{"sequence": "GGCACTATTT", "switch fluorescence ratio": 0.997}
{"sequence": "GGCACTGATG", "switch fluorescence ratio": 1.04}
{"sequence": "GGCAGAATGC", "switch fluorescence ratio": 0.993}
{"sequence": "GGCAGACTCG", "switch fluorescence ratio": 1}
{"sequence": "GGCAGATCAG", "switch fluorescence ratio": 0.993}
{"sequence": "GGCAGCGAGT", "switch fluorescence ratio": 1.02}
{"sequence": "GGCAGGAGTA", "switch fluorescence ratio": 1.05}
{"sequence": "GGCAGGCCTG", "switch fluorescence ratio": 0.995}
{"sequence": "GGCAGGCGTG", "switch fluorescence ratio": 1.01}
{"sequence": "GGCAGGGAAC", "switch fluorescence ratio": 1.04}
{"sequence": "GGCAGTAAGG", "switch fluorescence ratio": 1}
{"sequence": "GGCAGTACTG", "switch fluorescence ratio": 1.08}
{"sequence": "GGCAGTTTGA", "switch fluorescence ratio": 0.992}
{"sequence": "GGCATACCTC", "switch fluorescence ratio": 1.13}
{"sequence": "GGCATAGGGT", "switch fluorescence ratio": 0.997}
{"sequence": "GGCATCAATC", "switch fluorescence ratio": 1.04}
{"sequence": "GGCATCAGCA", "switch fluorescence ratio": 1.01}
{"sequence": "GGCATTTCGC", "switch fluorescence ratio": 1.05}
{"sequence": "GGCCATCTGA", "switch fluorescence ratio": 0.998}
{"sequence": "GGCCATTTTG", "switch fluorescence ratio": 1.02}
{"sequence": "GGCCCGACTT", "switch fluorescence ratio": 0.999}
{"sequence": "GGCCGCATCA", "switch fluorescence ratio": 1.11}
{"sequence": "GGCCGTGATC", "switch fluorescence ratio": 1.15}
{"sequence": "GGCCTCCTT", "switch fluorescence ratio": 1.03}
{"sequence": "GGCCTGACGA", "switch fluorescence ratio": 1.81}
{"sequence": "GGCCTGCAGT", "switch fluorescence ratio": 1.01}
{"sequence": "GGCCTGCCGC", "switch fluorescence ratio": 1.03}
{"sequence": "GGCCTGGCCG", "switch fluorescence ratio": 1.02}
{"sequence": "GGCCTTTCGA", "switch fluorescence ratio": 0.976}
{"sequence": "GGCGAAGGGA", "switch fluorescence ratio": 1.01}
{"sequence": "GGCGAAGTGG", "switch fluorescence ratio": 0.995}
{"sequence": "GGCGAATCTG", "switch fluorescence ratio": 1.01}
{"sequence": "GGCGACTGGG", "switch fluorescence ratio": 0.923}
{"sequence": "GGCGAGTCTT", "switch fluorescence ratio": 0.965}
{"sequence": "GGCGATAAGG", "switch fluorescence ratio": 1.03}
{"sequence": "GGCGCAGAAT", "switch fluorescence ratio": 1.01}
{"sequence": "GGCGCAGGGT", "switch fluorescence ratio": 1.03}
{"sequence": "GGCGCAGGTC", "switch fluorescence ratio": 1.06}
{"sequence": "GGCGCCGCG", "switch fluorescence ratio": 1.02}
{"sequence": "GGCGCCTTGC", "switch fluorescence ratio": 1.01}
{"sequence": "GGCGCGCTAC", "switch fluorescence ratio": 1.12}
{"sequence": "GGCGCTATCG", "switch fluorescence ratio": 1.04}
{"sequence": "GGCGCTCCGT", "switch fluorescence ratio": 1.05}
{"sequence": "GGCGGACAAA", "switch fluorescence ratio": 1.07}
{"sequence": "GGCGGCAGG", "switch fluorescence ratio": 1.03}
{"sequence": "GGCGGCAGGC", "switch fluorescence ratio": 1.05}
{"sequence": "GGCGGCCCCG", "switch fluorescence ratio": 0.994}
{"sequence": "GGCGGCGTTG", "switch fluorescence ratio": 1}
{"sequence": "GGCGGCTGTG", "switch fluorescence ratio": 0.963}
{"sequence": "GGCGGCTTAA", "switch fluorescence ratio": 0.962}
{"sequence": "GGCGGGCCGT", "switch fluorescence ratio": 1.01}
{"sequence": "GGCGGGCTTC", "switch fluorescence ratio": 1.02}
{"sequence": "GGCGGGTATC", "switch fluorescence ratio": 0.967}
{"sequence": "GGCGGGTTTA", "switch fluorescence ratio": 0.959}
